# Measurements: the supplement of paper PMC3334620
# The full ranking holds about 33,000 sequences; the median of “E-score (-0.5 to 0.5)” is about -0.041, and the highest 2% start at about 0.37. The list shows a part of the results.
# Biological target: T1, Ecm22 (UniProt Q05958)
# T1 sequence: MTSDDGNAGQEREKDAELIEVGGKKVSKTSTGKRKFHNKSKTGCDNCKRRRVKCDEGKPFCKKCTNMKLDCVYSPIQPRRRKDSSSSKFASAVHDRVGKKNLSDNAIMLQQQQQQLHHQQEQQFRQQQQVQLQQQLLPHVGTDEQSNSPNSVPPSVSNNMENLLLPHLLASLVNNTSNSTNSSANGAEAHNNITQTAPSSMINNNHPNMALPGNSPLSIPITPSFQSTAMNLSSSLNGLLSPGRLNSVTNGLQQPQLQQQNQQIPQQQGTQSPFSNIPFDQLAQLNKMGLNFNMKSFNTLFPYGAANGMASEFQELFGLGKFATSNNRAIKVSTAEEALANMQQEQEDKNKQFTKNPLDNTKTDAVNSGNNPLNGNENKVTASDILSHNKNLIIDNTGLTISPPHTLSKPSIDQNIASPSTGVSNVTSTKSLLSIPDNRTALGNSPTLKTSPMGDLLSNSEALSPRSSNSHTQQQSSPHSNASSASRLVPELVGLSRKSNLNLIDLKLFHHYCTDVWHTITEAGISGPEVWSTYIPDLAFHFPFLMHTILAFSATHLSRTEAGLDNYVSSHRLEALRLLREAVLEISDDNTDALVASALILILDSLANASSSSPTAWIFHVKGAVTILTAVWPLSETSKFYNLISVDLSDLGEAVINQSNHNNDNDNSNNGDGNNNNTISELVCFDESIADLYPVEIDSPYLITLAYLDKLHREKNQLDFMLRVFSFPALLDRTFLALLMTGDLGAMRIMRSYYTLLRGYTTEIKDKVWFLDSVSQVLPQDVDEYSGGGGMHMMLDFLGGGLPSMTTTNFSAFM
# Assay: PBM E-score (8-mer binding enrichment) (E-score (-0.5 to 0.5)); higher = stronger / more preferred TF binding; most listed sequences are background and not binding sites
# Conditions: protein concentration: 200 nM; construct: GST-full length
# Procedure, shortened: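 For each ungapped eight-base word taken together with its reverse complement, the Universal PBM Analysis Suite assigned an E-score. Binding data came from GST-tagged yeast transcription factors, applied at about 100-200 nM, on universal all-10-mer Agilent arrays made double-stranded by primer extension. Fluorescent anti-GST marked bound protein, and scans were normalised with masliner.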
row,Sequence,PBM E-score
1,AGTCCCCG,-0.0418
2,AATTGATC,0.085
3,AGTGAGAT,-0.00562
4,CCGCTGGC,-0.172
5,GAAACACC,0.108
6,CATAAGGG,-0.134
7,AGCCTATA,-0.0899
8,GCCCACTA,-0.274
9,AACAACCA,-0.0609
10,GGTATGGA,-0.15
11,CTCCATCC,-0.224
12,ACGCGTAG,0.115
13,CATCACGG,-0.0135
14,GGATCTAC,-0.0807
15,ATACAAGA,-0.0503
16,CGATGTAA,0.211
17,AACTGACC,-0.172
18,AAGGTGCT,-0.295
19,CCCAATGA,-0.302
20,TCGAAAGA,0.076
21,CTAAGCAC,-0.177
22,GACTAGGC,0.00611

row,Sequence,PBM E-score
1,CCATCCTA,0.0862
2,CGGGCCAC,-0.174
3,TAGAATCA,0.0335
4,ATTAACCC,0.0324
5,ACTAGTGA,-0.246
6,CTCCCTTA,-0.267
7,CCCATGTC,-0.297
8,GCCCAAGC,-0.185
9,CACGGGAC,0.0405
10,AATGCGAC,0.24
11,CTAAATTA,0.0225
12,GCAGCCGC,-0.0784
13,GGTCGCCA,-0.0319
14,GCTTGGAC,-0.237
15,AGTAGCGC,0.0676
16,AAAACTTG,0.0503
17,CTCGGGGA,-0.129
18,AAGACATA,-0.0306
19,AACAAGTC,-0.0928
20,ACATCTAT,0.0869
21,CTCCAGAA,-0.0868
22,AGCACCCC,-0.107

row,Sequence,PBM E-score
1,GGACATAA,-0.0776
2,CGCGGGAA,0.132
3,AGTGATGA,-0.2
4,GTGAGTTA,-0.171
5,AGTATTAA,0.0259
6,CTCGCAAG,0.17
7,CCGCCGAA,-0.0118
8,ACCCAGGC,-0.048
9,GGAGATCA,-0.0786
10,CAACTGAA,0.0737
11,ATGGGGCA,-0.174
12,CTCGCCCC,-0.117
13,TAGTAAGA,-0.159
14,ATAATAAG,0.072
15,CCTCACTC,0.0136
16,CGGCGGTC,-0.0239
17,AGGCTAAC,-0.0729
18,GTGTTGTA,0.0221
19,CAACACCC,-0.24
20,CAGTGTCC,-0.112
21,CCACCTTA,-0.231
22,GTCAGGAA,0.0153

row,Sequence,PBM E-score
1,ATAGCTTG,-0.0854
2,GTAAAATA,0.0885
3,AACCGGCT,-0.0879
4,ACGCTGAT,0.0819
5,AATGAGCG,0.116
6,CGATATCC,0.0748
7,GCGTCCAC,-0.223
8,AATTGGTG,0.00933
9,ACGGCGTC,0.0206
10,CGTATAAC,0.473
11,ATACTGCC,-0.0398
12,CATTTCCA,-0.089
13,GCTTAAAA,0.00971
14,ACCGACCC,0.0883
15,ACCGCAGT,-0.0919
16,GAGCCCGA,0.0441
17,AACCACTG,-0.228
18,AAAAGGAC,-0.0347
19,AAATGCCG,0.0693
20,CCGAACCA,-0.0831
